Measured values taken from PubChem BioAssay AID2546 (National Center for Advancing Translational Sciences (NCATS), 2010).
Among all 310,000 compounds or so, about 11,000 (3.5%) were called active. Inconclusive results, whose numbers are uncertain, are shown with a selection of clear calls. Calls follow the shape of the dose curve; as a rule, active = well fitted inhibition curve with a large enough effect; inconclusive = small, poorly fitted or top-dose-only effect, or effect the other way; inactive = flat fitted curve, though single readings scatter. Potencies of inconclusive entries are left out as doubtful fits.

test: VP16 counterscreen qHTS for inhibitors of ROR gamma transcriptional activity; settings: Drosophila S2 Gal4-VP16 UAS-luciferase, luminescence, 20 h; series mostly up to 53.6 µM;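 also: Gal4-VP16 expression switched on by copper sulfate through the metallothionein promoter; nearly all actives have a fitted effect of over 50% in size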
Potency is read from the fitted curve at half-maximal effect; tags tell the direction and shape of the fitted curve.

Structure (SMILES) | Potency
O=C(Nc1ccc(Cl)cn1)c1ccc(COCC(F)(F)C(F)F)o1 | inconclusive [activator, partial curve]
COc1ccc(/C=C2/SC(=S)N(n3c(C)ccc3C)C2=O)cc1 | inactive
Nc1c(Cl)ncnc1N/N=C/c1ccc2ccccc2n1 | active: 1 µM
O=C(CSc1nc2ccccc2s1)CSc1nc2ccccc2s1 | inactive
CC(C)NC(=O)C1CCN(C2CCN(C(=O)c3scc4c3CCCC4)CC2)CC1 | inconclusive [inhibitor, single point]
Cc1cc(SC(C)C(=O)Nc2c(C)n(C)n(-c3ccccc3)c2=O)nc2ccccc12 (stereo not given) | inconclusive [inhibitor, single point]
COc1cc(-c2[nH]ncc2CN2CCN(c3cccc(C)n3)CC2)cc(OC)c1OC | inconclusive [inhibitor, single point]
Cc1ccc(C)c(N2CN(CCC3=CCCCC3)CNC2=S)c1 | active: 4.47 µM
Cc1ccc(S(=O)(=O)N[C@H](C(=O)OCC(=O)NC(=O)Nc2ccc3c(c2)OCCO3)C(C)C)cc1 | inconclusive [inhibitor, single point]
CCc1ccc2c(CN(CC)Cc3nc4ccccc4c(=O)[nH]3)cc(=O)oc2c1 | inconclusive [inhibitor, single point]
O=C1c2ccccc2C(=O)N1CCCCN(C(=O)c1ccc(Cl)s1)c1ccc(Cl)cc1 | active: 5.01 µM
CCC(C)[C@H](NC(=O)c1cc2cc(Cl)ccc2n1C)C(=O)N1CCC(C(=O)O)CC1 (stereo not given in full) | inactive
O=C(N/N=C/c1ccccn1)c1sc2ccccc2c1Cl | active: 3.16 µM
O=C(NC(=S)NNC(=O)c1ccccc1[N+](=O)[O-])c1ccc(Br)cc1 | active: 6.31 µM
CCn1cc(CNC(=S)Nc2cccc(Cl)c2C)cn1 | inactive
O=C(/C=C/c1ccccc1)CC(O)(c1ccccc1)C(F)(F)F (stereo not given) | inconclusive [inhibitor, single point]
Cc1cccc(C(=O)NC(CC(=O)O)c2ccc(OC3CCCC3)cc2)c1[N+](=O)[O-] (stereo not given) | inconclusive [activator, single point]
Cc1cccc(N=Nc2c(O)[nH]c3ccc(F)cc23)c1 | inconclusive [inhibitor, single point]
CCOc1cc(CNc2ccc3c(c2)OCCO3)cc(Br)c1OCC | inconclusive [inhibitor, single point]
O=C(N/N=C/c1cn(-c2ccccc2)nc1-c1ccccc1)c1ccco1 | active: 10 µM
CN1CCN(C(c2ccccn2)c2cc(Cl)c3cccnc3c2O)CC1 (stereo not given) | active: 5.01 µM
CC(=O)Nc1ccc(NC(=O)CCCSc2nc3ccccc3s2)cc1 | active: 5.01 µM
CCN(CC)c1ccc(/C=C2\C(=O)N(c3nnc(C)c(=O)[nH]3)N=C2C)cc1 | inconclusive [inhibitor, single point]

Structure (SMILES) | Potency
O=[N+]([O-])/C=C/c1cn(Cc2ccc(Cl)cc2)c2ccccc12 | inconclusive [inhibitor, single point]
CC(=O)Nc1ccccc1/C=C/c1ccc2c(C)ccc(O)c2n1 | active: 28.2 µM
Cc1ccc(S(=O)c2ccc(NC(=O)C3CC3)cc2C#N)cc1 (stereo not given) | inconclusive [inhibitor, single point]
CCOC(=O)c1ccc2c(c1)nc(SCc1cn3ccsc3n1)n2CC | inconclusive [inhibitor, single point]
COCCCn1c(C(=O)NCCN2CCOCC2)cc2c(=O)n3ccccc3nc21 | inconclusive [inhibitor, single point]
Cc1nn(CC(=O)Nc2ccc(C(C)C)cc2)c(C)c1[N+](=O)[O-] | inconclusive [inhibitor, single point]
COc1cc(SC)ccc1C(=O)Nc1ncc(C)s1 | inconclusive [inhibitor, partial curve]
O=C(Cn1nc(C(F)F)cc1C(F)F)NNC(=S)Nc1ccc([N+](=O)[O-])cc1 | inconclusive [inhibitor, partial curve]
COC(=O)c1c(C)oc2ccc(N(C(=O)c3ccncc3)S(=O)(=O)c3ccc(C)cc3)cc12 | active: 7.08 µM
O=C(O)c1ccn2c(C(=O)c3ccc(Cl)cc3)c(-c3ccccc3)cc2c1 | inactive
S=C(Nc1ccccc1)N1CCN(C/C=C/c2ccccc2)CC1 | inconclusive [inhibitor, single point]
CCCCCC(=O)NC(=S)Nc1ccc(Cl)cn1 | active: 7.94 µM
Fc1cccc(-n2cc(-c3ccccc3)c3c(=S)nc[nH]c32)c1 | active: 0.631 µM
Cc1ccc(NC2Sc3ccccc3NC2=O)cc1 (stereo not given) | inconclusive [inhibitor, partial curve]
Cc1cc(NC(=O)COc2ccccc2C)ccc1NC(=O)c1cccs1 | inactive
Cc1cccc2sc(NC(=O)C3CCCN(S(=O)(=O)c4cccc5nonc45)C3)nc12 (stereo not given) | inconclusive [inhibitor, single point]
CO/N=C/c1ccc(N2CCN(C(=O)c3ccc(F)cc3)CC2)c([N+](=O)[O-])c1 | active: 8.91 µM
C[C@H](NC(=O)c1nc[nH]c1C(=O)N[C@@H](CCCCNC(=O)OC(C)(C)C)C(=O)OC(C)(C)C)C(=O)OCc1ccccc1 | inconclusive [inhibitor, single point]
CCCn1c(=N)n(CC(=O)c2ccc(Cl)cc2)c2ccccc21 | inconclusive [inhibitor, single point]
CC(=O)C1=NN(c2ccccc2)C(c2cccs2)N1c1ccc(N(C)C)cc1 (stereo not given) | inconclusive [inhibitor, single point]
Cc1cc(C(=O)Nc2nc3c(C)cccc3s2)c(C)o1 | inconclusive [inhibitor, partial curve]
CCCCOC(=O)C1=C(C)Nc2nnnn2C1c1ccccc1Cl (stereo not given) | inconclusive [inhibitor, single point]
